Screen size: about 310,000 compounds; about 14,000 (4.5%) showed an effect of 50% or more. The effect is printed as a negative number. The list shows a part of the results.
What follows are compounds tested against human ether-à-go-go-related gene (hERG) potassium channel (human, UniProt Q12809) (assay: primary screen, population patch clamp on CHO cells stably expressing hERG).
Chain of human ether-à-go-go-related gene (hERG) potassium channel (Q12809 whole entry, looked up): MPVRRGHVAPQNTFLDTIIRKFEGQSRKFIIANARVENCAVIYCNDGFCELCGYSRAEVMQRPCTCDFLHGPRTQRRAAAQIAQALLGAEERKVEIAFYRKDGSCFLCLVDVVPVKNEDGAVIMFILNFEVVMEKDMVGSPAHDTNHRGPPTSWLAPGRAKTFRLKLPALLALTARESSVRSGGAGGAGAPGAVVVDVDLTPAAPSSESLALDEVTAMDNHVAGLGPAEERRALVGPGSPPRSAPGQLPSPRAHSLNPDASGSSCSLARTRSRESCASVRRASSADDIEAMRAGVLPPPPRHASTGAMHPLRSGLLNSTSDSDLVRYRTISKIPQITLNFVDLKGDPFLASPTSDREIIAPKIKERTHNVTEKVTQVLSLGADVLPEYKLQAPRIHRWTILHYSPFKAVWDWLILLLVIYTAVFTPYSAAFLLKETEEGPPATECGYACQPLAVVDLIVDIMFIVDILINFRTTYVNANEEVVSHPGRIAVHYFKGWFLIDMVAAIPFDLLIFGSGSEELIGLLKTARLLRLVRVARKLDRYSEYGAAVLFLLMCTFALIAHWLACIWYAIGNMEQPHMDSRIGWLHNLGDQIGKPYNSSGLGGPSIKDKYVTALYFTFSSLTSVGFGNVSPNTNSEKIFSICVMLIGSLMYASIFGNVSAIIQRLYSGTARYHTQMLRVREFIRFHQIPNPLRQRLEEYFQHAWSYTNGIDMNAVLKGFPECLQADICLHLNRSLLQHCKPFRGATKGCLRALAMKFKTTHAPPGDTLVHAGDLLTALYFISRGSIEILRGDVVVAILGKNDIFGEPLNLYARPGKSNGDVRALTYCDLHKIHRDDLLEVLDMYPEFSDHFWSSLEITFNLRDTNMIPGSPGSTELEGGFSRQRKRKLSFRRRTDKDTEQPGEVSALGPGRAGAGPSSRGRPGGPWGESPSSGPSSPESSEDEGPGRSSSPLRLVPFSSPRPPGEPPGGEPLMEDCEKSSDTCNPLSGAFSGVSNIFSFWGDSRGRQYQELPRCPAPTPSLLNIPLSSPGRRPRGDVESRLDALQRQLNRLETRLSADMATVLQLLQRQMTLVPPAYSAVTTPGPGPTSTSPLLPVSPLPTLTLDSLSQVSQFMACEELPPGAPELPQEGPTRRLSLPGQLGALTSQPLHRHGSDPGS
In the case of `COc1ccc(S(=O)(=O)N2CCC(C(=O)NCCC(=O)NCc3ccncc3)CC2)cc1`, the “hERG current change (%, negative = inhibition) at 10uM” value is reported as 11%. For `COc1ccc(/C=N/OCC(=O)N=Nc2c(O)[nH]c3ccc(Br)cc23)cc1OC`, the “hERG current change (%, negative = inhibition) at 10uM” value was 2.62%. `CCN(CC)S(=O)(=O)c1ccc2[nH]cc(C(=O)NCCCN3CCCCC3C)c(=O)c2c1` (centres unmarked) was tested, and the “hERG current change (%, negative = inhibition) at 10uM” value was -4.48%. In the case of `O=C(COc1ccccc1[N+](=O)[O-])Nc1ccccc1N1CCCCC1`, the “hERG current change (%, negative = inhibition) at 10uM” value is reported as -5.76%. With `COc1ccc(OC)c(NC(=O)CSc2ncccn2)c1` the “hERG current change (%, negative = inhibition) at 10uM” value was 4.45%. For `CCCCN(C(=O)NC(=O)C1=C(N2CCOCC2)/C(=C/c2ccccc2)CC1)S(C)(=O)=O`, the “hERG current change (%, negative = inhibition) at 10uM” value was -6.13%. For `CCC(c1nnc(SCC(=O)Nc2ccc(C(=O)Nc3ccccc3OC)cc2)o1)N(C)C` (centres unmarked), the “hERG current change (%, negative = inhibition) at 10uM” value was 2.59%. With `Cc1cccc(C)c1NC(=S)NN1CCN(C)CC1` the “hERG current change (%, negative = inhibition) at 10uM” value was 8.97%. With `Cc1cc(OCC(=O)NC2CCN(C)CC2)ccc1[N+](=O)[O-]` the “hERG current change (%, negative = inhibition) at 10uM” value was -1.32%. In the case of `COc1cccc(CNC(=O)c2cc3oc4ccccc4c3n2C)c1OC`, the “hERG current change (%, negative = inhibition) at 10uM” value is reported as 13.4%. In the case of `Cc1ccc(C(=O)N/C(=C\c2cn(C)c3ccccc23)C(=O)N2CCN(C)CC2)cc1`, the “hERG current change (%, negative = inhibition) at 10uM” value is reported as -10.8%. For `COCC(=O)Nc1ccccc1NC(C)=O`, the “hERG current change (%, negative = inhibition) at 10uM” value was -5.64%. `O=C(/C=C/c1ccco1)N1CCN(c2ccc(F)cc2)CC1` was tested, and the “hERG current change (%, negative = inhibition) at 10uM” value was -14.8%. With `Cc1ccsc1/C=N/n1cnc2sc(C)c(C)c2c1=O` the “hERG current change (%, negative = inhibition) at 10uM” value was -3.99%. In the case of `O=c1c2cc3c(cc2[nH]c(=S)n1CCN1CCOCC1)OCO3`, the “hERG current change (%, negative = inhibition) at 10uM” value is reported as 9.66%. For `CCc1cccc(OCC(=O)Nc2ccc(S(=O)(=O)Nc3ccccn3)cc2)c1`, the “hERG current change (%, negative = inhibition) at 10uM” value was 6.47%. In the case of `CCN(CC)C(=O)c1ccc(-c2nnc(OC)c3ccccc23)cc1`, the “hERG current change (%, negative = inhibition) at 10uM” value is reported as -11.8%. With `COc1cccc(-n2c(=O)c3c(C)c(C(=O)N(C)C)sc3n(CC(=O)NCC3CCCO3)c2=O)c1` (centres unmarked) the “hERG current change (%, negative = inhibition) at 10uM” value was 13%. `Cc1ccc(N=Cc2sc(O)c3ccccc23)cc1` was tested, and the “hERG current change (%, negative = inhibition) at 10uM” value was 10.6%. `COc1ccc(NC(=S)N2CCc3ccccc3C2)cc1` was tested, and the “hERG current change (%, negative = inhibition) at 10uM” value was -5.61%. With `CCC(=O)N1CCN(c2ccc(NC(=O)c3ccc4c(c3)OCO4)cc2)CC1` the “hERG current change (%, negative = inhibition) at 10uM” value was -0.905%. In the case of `CC1CCN(C(=S)Nc2cccc(S(=O)(=O)N(C)C)c2)CC1`, the “hERG current change (%, negative = inhibition) at 10uM” value is reported as 11.1%. For `CN(CC(=O)Nc1ccccc1N1CCOCC1)S(=O)(=O)c1ccc(Cl)cc1`, the “hERG current change (%, negative = inhibition) at 10uM” value was 5.93%. For `COc1ccc(N2C(=O)c3ccc(C(=O)Nc4ccc(NC(C)=O)cc4)cc3C2=O)cc1`, the “hERG current change (%, negative = inhibition) at 10uM” value was -3.33%. `COc1ccc(Cl)cc1NC(=O)c1cc(-c2ccco2)on1` was tested, and the “hERG current change (%, negative = inhibition) at 10uM” value was 11.9%. For `O=C(COc1ccc(Cl)cc1)NCCCNC(=O)c1cccnc1`, the “hERG current change (%, negative = inhibition) at 10uM” value was -8.28%. With `COC(=O)C1=C(C)N=C2SC(C)C(=O)N2C1c1ccc(C(=O)OC)cc1` (centres unmarked) the “hERG current change (%, negative = inhibition) at 10uM” value was 4.87%. In the case of `Cn1ncc(C#N)c1NC(=O)C1CC(c2ccc(Cl)c(Cl)c2)=NO1` (centres unmarked), the “hERG current change (%, negative = inhibition) at 10uM” value is reported as -9.94%. With `O=S(=O)(NCC(c1ccc2c(c1)OCO2)N1CCOCC1)c1ccccc1` (centres unmarked) the “hERG current change (%, negative = inhibition) at 10uM” value was -15.1%. For `O=C(O)CSc1nnc(-c2ccc(Cl)cc2Cl)n1-c1ccc(Br)cc1`, the “hERG current change (%, negative = inhibition) at 10uM” value was 7.53%. In the case of `CC(C)(C)OC(=O)NN1CC(=O)N2Cc3ccccc3C[C@@H]2C1=O`, the “hERG current change (%, negative = inhibition) at 10uM” value is reported as 9.33%. For `COc1cc(OC)cc(C(=O)O/N=C(\N)c2ccccn2)c1`, the “hERG current change (%, negative = inhibition) at 10uM” value was 7.21%. With `COC(=O)CCCCCCCCC(O)C[N+]1(C)CCOCC1.[I-]` (centres unmarked) the “hERG current change (%, negative = inhibition) at 10uM” value was 10.2%. For `COc1ccc(-c2ccc(=O)n(CC(=O)Nc3nnc(C(C)C)s3)n2)cc1OC`, the “hERG current change (%, negative = inhibition) at 10uM” value was 11.9%. `COc1cccc2cc(C(=O)n3ccc(C)n3)c(=O)oc12` was tested, and the “hERG current change (%, negative = inhibition) at 10uM” value was 8.24%. With `CCCCSc1nc2c(c(=O)[nH]1)CCC2` the “hERG current change (%, negative = inhibition) at 10uM” value was 12.4%. `CCCOc1ccc(/C=C/C(=O)NCc2ccccc2)cc1` was tested, and the “hERG current change (%, negative = inhibition) at 10uM” value was 18.8%. For `Cc1nc2ccc(S(=O)(=O)N(C)CC(=O)NC(C)c3ccccc3)cc2s1` (centres unmarked), the “hERG current change (%, negative = inhibition) at 10uM” value was 17.1%. In the case of `Cc1cc(C)n(CCC(=O)N=Nc2c(O)[nH]c3ccc(Br)cc23)n1`, the “hERG current change (%, negative = inhibition) at 10uM” value is reported as 7.78%. `CN(C)S(=O)(=O)c1ccc(C(=O)NCCS(=O)(=O)N2CCN(c3ccc(F)cc3)CC2)cc1` was tested, and the “hERG current change (%, negative = inhibition) at 10uM” value was 1.61%. `Cc1ccc(-n2c(C)cc(/C=c3/sc4nc5ccccc5n4c3=O)c2C)cc1` was tested, and the “hERG current change (%, negative = inhibition) at 10uM” value was 9.55%. For `CCNC(=O)CNC(=O)c1nn(Cc2ccccc2)c(=O)c2ccccc12`, the “hERG current change (%, negative = inhibition) at 10uM” value was -2.55%. With `CCc1nc2ccc(C(=O)N3CCN(c4cccc(C)c4C)CC3)cc2nc1CC` the “hERG current change (%, negative = inhibition) at 10uM” value was 1.03%. In the case of `CCN(CC)c1ccc(C2C(C(C)=O)C(=O)CC(C)(O)C2C(C)=O)cc1` (centres unmarked), the “hERG current change (%, negative = inhibition) at 10uM” value is reported as -13.4%. `O=C(COC(=O)c1ccc(F)c(S(=O)(=O)N2CCOCC2)c1)NCc1ccco1` was tested, and the “hERG current change (%, negative = inhibition) at 10uM” value was -3.72%. In the case of `C=CCSc1nc(C)c(CC(=O)OCCCC)c(=O)[nH]1`, the “hERG current change (%, negative = inhibition) at 10uM” value is reported as 0.959%. With `COCCn1c(SCC(=O)NC(=O)NC(C)(C)C)nc2ccccc21` the “hERG current change (%, negative = inhibition) at 10uM” value was -17%. With `CC(C)c1ccc(OCc2ccc(C(=O)N(C)C)o2)cc1` the “hERG current change (%, negative = inhibition) at 10uM” value was -3.03%. In the case of `O=C(COC(=O)c1cc2c(s1)CCCC2)Nc1ccc(Cl)cn1`, the “hERG current change (%, negative = inhibition) at 10uM” value is reported as 1.56%. With `Cc1ccc(C)c(OCC(O)CN2CCC(C)CC2)c1C` (centres unmarked) the “hERG current change (%, negative = inhibition) at 10uM” value was -33.6%. In the case of `O=C1/C(=C/c2ccncc2)CCc2ccccc21`, the “hERG current change (%, negative = inhibition) at 10uM” value is reported as -35.5%. `O=S(=O)(Nc1cc2nc3ccccc3nc2n1Cc1ccccc1)c1ccc(Cl)cc1` was tested, and the “hERG current change (%, negative = inhibition) at 10uM” value was 8.22%. In the case of `CCc1nn2c(N3CCOCC3)cc(C)nc2c1-c1ccccc1`, the “hERG current change (%, negative = inhibition) at 10uM” value is reported as 15%. For `CC(=O)Nc1ccc(S(=O)(=O)Nc2cccc(-c3ccc4nncn4n3)c2)cc1`, the “hERG current change (%, negative = inhibition) at 10uM” value was -11.2%. `O=C(Nc1ccc2c(c1)OCO2)C1CCCN1C(=O)NCc1ccccc1` (centres unmarked) was tested, and the “hERG current change (%, negative = inhibition) at 10uM” value was -4.95%. In the case of `Cc1cccc(NC(=O)CN2C(=O)S/C(=C\c3ccccn3)C2=O)c1`, the “hERG current change (%, negative = inhibition) at 10uM” value is reported as 30.2%.
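Note: peak tail current of the secondary pulse compared with the same well before compound.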
